In EPA's CvTdb concentration-time database:
Values joined by “and” are separate entries in the source; they are usually repeats but may differ in a detail not shown here. Identical values can stand only once. Further values from the same series stand in other lists.

How the values were obtained:
Rat [1] = assay: concentration in liver after dosing; conditions: 6744 h; dosed: 3,3',4,4',5-pentachlorobiphenyl; 1000 mg/kg; oral; Female; Harlan Sprague Dawley
Rat [2] = assay: concentration in liver after dosing; conditions: 288 h; dosed: 3,3',4,4',5-pentachlorobiphenyl; 1000 mg/kg; oral; Female; Harlan Sprague Dawley
Rat [3] = assay: concentration in plasma after dosing; conditions: 7416 h; dosed: 3,3',4,4',5-pentachlorobiphenyl; 1000 mg/kg; oral; Female; F344
Rat [4] = assay: concentration in brain after dosing; conditions: 0.5 h; dosed: alpha/beta-Thujone mixture; 25 mg/kg; oral; Male; F344
Rat [5] = assay: concentration in brain after dosing; conditions: 0.75 h; dosed: 76231-76-0; 3.0 mg/kg; iv; Female; F344
Rat [6] = assay: concentration in brain after dosing; conditions: 6 h; dosed: alpha/beta-Thujone mixture; 25 mg/kg; oral; Female; F344
Rat [7] = assay: concentration in plasma after dosing; conditions: 4 h; dosed: 76231-76-0; 3.0 mg/kg; iv; Male; F344
Rat [8] = assay: concentration in plasma after dosing; conditions: 2 h; dosed: 76231-76-0; 3.0 mg/kg; iv; Male; F344
Rat [9] = assay: concentration in plasma after dosing; conditions: 5 min; dosed: alpha/beta-Thujone mixture; 25 mg/kg; oral; Female; F344
Rat [10] = assay: concentration in plasma after dosing; conditions: 1.5 h; dosed: alpha/beta-Thujone mixture; 50 mg/kg; oral; Female; F344
Rat [11] = assay: concentration in plasma after dosing; conditions: 0.5 h; dosed: alpha/beta-Thujone mixture; 25 mg/kg; oral; Female; F344
Rat [12] = assay: concentration in plasma after dosing; conditions: 0.5 h; dosed: alpha/beta-Thujone mixture; 50 mg/kg; oral; Female; F344
Rat [13] = assay: concentration in plasma after dosing; conditions: 4 h; dosed: 76231-76-0; 3.0 mg/kg; iv; Male; F344; remark: listed apart in the source
Rat [14] = assay: concentration in plasma after dosing; conditions: 12 h; dosed: alpha/beta-Thujone mixture; 50 mg/kg; oral; Male; F344
rat [15] = assay: concentration in blood after dosing; conditions: dosed: tert-amyl methyl ether, inhalation, duration: 6 hr, F344 (Charles River)

Clc1ccc(-c2cc(Cl)c(Cl)c(Cl)c2)cc1Cl [3,3',4,4',5-pentachlorobiphenyl]
Conditions	concentration in liver [pg/g]	concentration in plasma [ng/mL]
Rat [1]	1170	–
Rat [2]	11500	–
Rat [3]	–	0.0359

CC(C)[C@]12CC(=O)[C@H](C)[C@H]1C2 [alpha-Thujone]
Conditions	concentration in brain [ng/g]	concentration in plasma [ng/mL]
Rat [4]	511	–
Rat [5]	177	–
Rat [6]	185	–
Rat [7]	–	20.9
Rat [8]	–	18.8
Rat [9]	–	350
Rat [10]	–	73.1
Rat [11]	–	280
Rat [12]	–	479
Rat [13]	–	15.1
Rat [14]	–	13

CCC(C)(C)OC [tertiary amyl methyl ether]
rat [15]
Conditions	concentration in blood
0.2263 h, 500 ppm, female	5810 ng/mL
0.2525 h, 500 ppm, female	8410 ng/mL
0.2551 h, 100 ppm, female	881 ng/mL
0.2653 h, 100 ppm, female	1800 ng/mL
0.2703 h, 100 ppm, female	1450 ng/mL
0.2738 h, 100 ppm, female	1190 ng/mL
0.3942 h, 2500 ppm, female	32600 ng/mL
0.4236 h, 2500 ppm, female	40200 ng/mL
0.4245 h, 2500 ppm, female	37400 ng/mL
0.4292 h, 2500 ppm, female	22500 ng/mL
0.4366 h, 100 ppm, female	992 ng/mL
0.4373 h, 100 ppm, female	940 ng/mL
0.5868 h, 2500 ppm, female	27600 ng/mL
0.5905 h, 500 ppm, female	8410 ng/mL
0.5956 h, 500 ppm, female	5500 ng/mL
0.5965 h, 500 ppm, female	4950 ng/mL
0.597 h, 500 ppm, female	4700 ng/mL
0.5988 h, 500 ppm, female	3650 ng/mL
0.6194 h, 2500 ppm, female	25300 ng/mL
0.7791 h, 2500 ppm, female	23800 ng/mL
0.7807 h, 2500 ppm, female	19000 ng/mL
0.8093 h, 2500 ppm, female	29000 ng/mL
0.8101 h, 2500 ppm, female	26500 ng/mL
0.9675 h, 500 ppm, female	3650 ng/mL
0.968 h, 500 ppm, female	3340 ng/mL
0.9693 h, 500 ppm, female	2600 ng/mL
0.9878 h, 100 ppm, female	829 ng/mL
0.9914 h, 100 ppm, female	569 ng/mL
1.862 h, 500 ppm, female	1480 ng/mL
1.863 h, 500 ppm, female	866 ng/mL
1.864 h, 500 ppm, female	742 ng/mL
1.886 h, 100 ppm, female	368 ng/mL
1.887 h, 100 ppm, female	271 ng/mL
1.888 h, 100 ppm, female	212 ng/mL
1.897 h, 2500 ppm, female	13900 ng/mL and 12700 ng/mL
1.898 h, 2500 ppm, female	9100 ng/mL
1.899 h, 2500 ppm, female	7630 ng/mL
3.747 h, 2500 ppm, female	3650 ng/mL
3.767 h, 100 ppm, male	211 ng/mL
3.779 h, 2500 ppm, female	5330 ng/mL
3.78 h, 2500 ppm, female	1550 ng/mL
3.88 h, 100 ppm, female	96.2 ng/mL
9.851 h, 100 ppm, female	1.74 ng/mL
17.79 h, 2500 ppm, female	410 ng/mL
17.82 h, 100 ppm, male	13.6 ng/mL
17.9 h, 500 ppm, female	61.8 ng/mL
18.02 h, 100 ppm, female	12.5 ng/mL
137 s, 2500 ppm, female	51100 ng/mL
141 s, 2500 ppm, female	47500 ng/mL
144 s, 2500 ppm, female	45000 ng/mL
145 s, 2500 ppm, female	43700 ng/mL
193 s, 500 ppm, female	16800 ng/mL
242 s, 500 ppm, female	26500 ng/mL
270 s, 2500 ppm, female	35100 ng/mL

rat [15], female, during exposure
Conditions	concentration in blood
-268 s, 500 ppm	19600 ng/mL
-6 h, 2500 ppm	10300 ng/mL and 9030 ng/mL
-5.999 h, 2500 ppm	7560 ng/mL
-5.938 h, 2500 ppm	16400 ng/mL
-5.909 h, 2500 ppm	25000 ng/mL
-5.908 h, 2500 ppm	21400 ng/mL
-5.903 h, 100 ppm	1250 ng/mL
-5.879 h, 100 ppm	1190 ng/mL
-5.878 h, 2500 ppm	28800 ng/mL
-5.859 h, 100 ppm	1400 ng/mL
-5.83 h, 100 ppm	982 ng/mL
-5.821 h, 500 ppm	2970 ng/mL
-5.804 h, 100 ppm	754 ng/mL
-5.79 h, 500 ppm	2600 ng/mL
-5.672 h, 500 ppm	5870 ng/mL
-5.548 h, 500 ppm	4760 ng/mL
-5.527 h, 2500 ppm	26500 ng/mL
-5.521 h, 500 ppm	7360 ng/mL
-5.501 h, 2500 ppm	44800 ng/mL
-5.5 h, 2500 ppm	41200 ng/mL
-5.498 h, 100 ppm	1760 ng/mL
-5.498 h, 2500 ppm	33800 ng/mL and 32600 ng/mL
-5.497 h, 100 ppm	1700 ng/mL
-5.494 h, 500 ppm	9520 ng/mL
-5.493 h, 2500 ppm	17700 ng/mL
-5.152 h, 2500 ppm	48700 ng/mL and 47300 ng/mL
-5.146 h, 100 ppm	2800 ng/mL
-5.136 h, 100 ppm	2020 ng/mL
-5.133 h, 100 ppm	1860 ng/mL
-5.124 h, 2500 ppm	59700 ng/mL and 58600 ng/mL
-5.123 h, 2500 ppm	55900 ng/mL
-4.918 h, 500 ppm	13900 ng/mL
-4.073 h, 100 ppm	2900 ng/mL
-4.069 h, 100 ppm	2650 ng/mL
-4.049 h, 100 ppm	2840 ng/mL
-4.042 h, 2500 ppm	61200 ng/mL
-4.041 h, 2500 ppm	59500 ng/mL
-4.039 h, 2500 ppm	53600 ng/mL
-4.016 h, 2500 ppm	80900 ng/mL
-4.014 h, 2500 ppm	73300 ng/mL
-4.012 h, 2500 ppm	68500 ng/mL
-3.876 h, 500 ppm	15000 ng/mL
-3.874 h, 500 ppm	13900 ng/mL
-3.848 h, 500 ppm	16400 ng/mL
-2.172 h, 2500 ppm	91800 ng/mL
-2.171 h, 2500 ppm	88100 ng/mL
-2.17 h, 2500 ppm	83200 ng/mL
-2.169 h, 2500 ppm	79400 ng/mL
-2.086 h, 100 ppm	3100 ng/mL
-2.066 h, 100 ppm	1650 ng/mL
-1.92 h, 500 ppm	21100 ng/mL
-1.893 h, 500 ppm	22900 ng/mL
-0.1379 h, 500 ppm	20800 ng/mL
-0.1362 h, 2500 ppm	97900 ng/mL
-0.1343 h, 2500 ppm	91900 ng/mL
-0.1296 h, 500 ppm	16100 ng/mL
-0.1295 h, 2500 ppm	76900 ng/mL
-0.1268 h, 2500 ppm	68300 ng/mL
-0.1264 h, 2500 ppm	67100 ng/mL
-0.1231 h, 500 ppm	12400 ng/mL
-0.12 h, 100 ppm	3220 ng/mL
-0.1177 h, 100 ppm	3050 ng/mL
-0.1027 h, 100 ppm	3620 ng/mL
